# The supplement of paper PMC12067230
# The data scatter; read single values as rough.
# Assay: amyloid nucleation score relative to library mode (yeast Sup35 reporter selection) (log enrichment difference); higher = more amyloid nucleation; sequences are the first 22 residues of the Bri2 peptide extended by up to 12 random residues
# Conditions: random library (experiment): 1;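 active = nucleation score significantly above 0 at FDR 0.05; inactive = not significantly above 0 or absent from output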
# 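Also: [psi-pin-] Saccharomyces cerevisiae expressing SupN fusions, induced by 100 µM Cu2SO4, selected 7 d at 30 °C without adenine and uracil, scored by deep sequencing of output versus input.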
row,Sequence,amyloid nucleation score
1,EASNCFAIRHFENKFAVETLICGLRLNPKMGWEW,3.4
2,EASNCFAIRHFENKFAVETLICGLRLSPAQLRAG,inactive
3,EASNCFAIRHFENKFAVETLICGLRRT,2.56
4,EASNCFAIRHFENKFAVETLICGLRT,-0.00976
5,EASNCFAIRHFENKFAVETLICGLRVARGSEAPD,1.59
6,EASNCFAIRHFENKFAVETLICGLRVFRTCHPRV,inactive
7,EASNCFAIRHFENKFAVETLICGLRVRMAVQASS,inactive
8,EASNCFAIRHFENKFAVETLICGLRWMELEALVG,inactive
9,EASNCFAIRHFENKFAVETLICGLSGTTNSSRCT,inactive
10,EASNCFAIRHFENKFAVETLICGLSRRTGAVRVR,inactive
11,EASNCFAIRHFENKFAVETLICGLTGGGAWSWPP,inactive
12,EASNCFAIRHFENKFAVETLICGLTVMQRMCDVQ,inactive
13,EASNCFAIRHFENKFAVETLICGLVDMRSHATLL,inactive
14,EASNCFAIRHFENKFAVETLICGLVESKCCVEKV,4.55
15,EASNCFAIRHFENKFAVETLICGLVGERRGLHGR,inactive
16,EASNCFAIRHFENKFAVETLICGLVPVVP,inactive
17,EASNCFAIRHFENKFAVETLICGLVRDCALRLRR,inactive
18,EASNCFAIRHFENKFAVETLICGLVSQSSSGRRD,2.37
19,EASNCFAIRHFENKFAVETLICGLVVHEGCQALG,inactive

row,Sequence,amyloid nucleation score
1,EASNCFAIRHFENKFAVETLICGLWDLQSEGGVV,3.1
2,EASNCFAIRHFENKFAVETLICGLWPGMEEATRR,7.58
3,EASNCFAIRHFENKFAVETLICGLWTTAMDRATN,5.02
4,EASNCFAIRHFENKFAVETLICGLYTWKRVAQ,1.78
5,EASNCFAIRHFENKFAVETLICGM,inactive
6,EASNCFAIRHFENKFAVETLICGMAEGLR,-0.405
7,EASNCFAIRHFENKFAVETLICGMCGDYVGLEAR,7.08
8,EASNCFAIRHFENKFAVETLICGMDSCH,inactive
9,EASNCFAIRHFENKFAVETLICGMEGSAVWRLL,inactive
10,EASNCFAIRHFENKFAVETLICGMFIQLHRMSPL,inactive
11,EASNCFAIRHFENKFAVETLICGMGGSPNGHHRS,inactive
12,EASNCFAIRHFENKFAVETLICGMGVYQICGKSM,inactive
13,EASNCFAIRHFENKFAVETLICGMKSGRRSWGV,-0.0194
14,EASNCFAIRHFENKFAVETLICGMLGECRREWYM,inactive
15,EASNCFAIRHFENKFAVETLICGMLSPSYSVFPE,inactive
16,EASNCFAIRHFENKFAVETLICGMLVIGSGEAWT,7.13
17,EASNCFAIRHFENKFAVETLICGMNLSCD,5.17
18,EASNCFAIRHFENKFAVETLICGMNVSSVGVLAW,0.0198
19,EASNCFAIRHFENKFAVETLICGMRCMFIVVFDW,inactive

row,Sequence,amyloid nucleation score
1,EASNCFAIRHFENKFAVETLICGMRGLGPNCFSC,inactive
2,EASNCFAIRHFENKFAVETLICGMRGWLDWWVTV,inactive
3,EASNCFAIRHFENKFAVETLICGMSKGSVGRVAS,-0.129
4,EASNCFAIRHFENKFAVETLICGMSLRGMVWWVW,inactive
5,EASNCFAIRHFENKFAVETLICGMSLRRGRNDWS,inactive
6,EASNCFAIRHFENKFAVETLICGMSPMGG,-0.499
7,EASNCFAIRHFENKFAVETLICGMSS,inactive
8,EASNCFAIRHFENKFAVETLICGMTEDLGTFV,inactive
9,EASNCFAIRHFENKFAVETLICGMTVLVGAPCAA,inactive
10,EASNCFAIRHFENKFAVETLICGMVH,inactive
11,EASNCFAIRHFENKFAVETLICGMVVVDCKCCRA,7.85
12,EASNCFAIRHFENKFAVETLICGMWRKRVMYPVA,inactive
13,EASNCFAIRHFENKFAVETLICGMWSRSASELWY,5.11
14,EASNCFAIRHFENKFAVETLICGMYGASWPARVS,-0.0479
15,EASNCFAIRHFENKFAVETLICGMYRSCAMNSRS,2.32
16,EASNCFAIRHFENKFAVETLICGN,inactive
17,EASNCFAIRHFENKFAVETLICGNADEAGGRGQA,inactive
18,EASNCFAIRHFENKFAVETLICGNADWNGGCRAW,2.44
19,EASNCFAIRHFENKFAVETLICGNEYWPIYVLFN,inactive

# Same assay, conditions: random library (experiment): 2
row,Sequence,amyloid nucleation score
1,EASNCFAIRHFENKFAVETLICGLSNI,inactive
2,EASNCFAIRHFENKFAVETLICGLSWCSKGISCL,inactive
3,EASNCFAIRHFENKFAVETLICGLTRIVGVQANF,inactive
4,EASNCFAIRHFENKFAVETLICGLVFGNMMWE,5.4
5,EASNCFAIRHFENKFAVETLICGLVSVMYFVNGL,6.61
6,EASNCFAIRHFENKFAVETLICGLYD,4.36
7,EASNCFAIRHFENKFAVETLICGLYGIWMEAIRV,inactive
8,EASNCFAIRHFENKFAVETLICGLYIPIRSGSSF,7.17
9,EASNCFAIRHFENKFAVETLICGMCIMMLVICLN,5.82
10,EASNCFAIRHFENKFAVETLICGMCV,6.31
11,EASNCFAIRHFENKFAVETLICGMKV,inactive
12,EASNCFAIRHFENKFAVETLICGMLIVSGEQPVW,7.42
13,EASNCFAIRHFENKFAVETLICGMLPDNYQDCGI,inactive
14,EASNCFAIRHFENKFAVETLICGMLVWCGIWRFL,inactive
15,EASNCFAIRHFENKFAVETLICGMMSCMFLWSLI,inactive
16,EASNCFAIRHFENKFAVETLICGMNHWYGTESR,4.81
17,EASNCFAIRHFENKFAVETLICGMRIINWIIL,inactive
18,EASNCFAIRHFENKFAVETLICGMSFMGVRCYRE,inactive
19,EASNCFAIRHFENKFAVETLICGMSVRCLESWYK,inactive
20,EASNCFAIRHFENKFAVETLICGMVFHRDVNHL,8.52
21,EASNCFAIRHFENKFAVETLICGMVGFFKSRRVG,inactive
22,EASNCFAIRHFENKFAVETLICGMWLFHFGFKYD,inactive
23,EASNCFAIRHFENKFAVETLICGMWQICYRQKYW,inactive
24,EASNCFAIRHFENKFAVETLICGMYPSFQ,5.85
25,EASNCFAIRHFENKFAVETLICGNALKTNRICSA,inactive
26,EASNCFAIRHFENKFAVETLICGNCNRIGNVG,4.91
27,EASNCFAIRHFENKFAVETLICGNDLFRRLQVSR,inactive
28,EASNCFAIRHFENKFAVETLICGNFASRCTLFGY,inactive
29,EASNCFAIRHFENKFAVETLICGNFRCTIRAVTF,inactive

# Same assay, conditions: random library (experiment): 3
row,Sequence,amyloid nucleation score
1,EASNCFAIRHFENKFAVETLICGLRQGCRMGNGW,inactive
2,EASNCFAIRHFENKFAVETLICGLRVICIRCVGR,inactive
3,EASNCFAIRHFENKFAVETLICGLRVWRGGLCVS,inactive
4,EASNCFAIRHFENKFAVETLICGLS,inactive
5,EASNCFAIRHFENKFAVETLICGLSGAIRGVESQ,inactive
6,EASNCFAIRHFENKFAVETLICGLSRSRRLRMAW,inactive
7,EASNCFAIRHFENKFAVETLICGLSWTPSMGVLG,0.582
8,EASNCFAIRHFENKFAVETLICGLTGATSISVSR,5.26
9,EASNCFAIRHFENKFAVETLICGLTLV,inactive
10,EASNCFAIRHFENKFAVETLICGLVAVQAGPCWP,6.78
11,EASNCFAIRHFENKFAVETLICGLVGTYVSHYAP,5.75
12,EASNCFAIRHFENKFAVETLICGLVWVAWPAVPW,inactive
13,EASNCFAIRHFENKFAVETLICGLWYSVRSMDVL,inactive
14,EASNCFAIRHFENKFAVETLICGMCPSWT,9.78
15,EASNCFAIRHFENKFAVETLICGMCSSQWITLWA,7.51
16,EASNCFAIRHFENKFAVETLICGMGDPKKEESTC,inactive
17,EASNCFAIRHFENKFAVETLICGMGDRS,0.845

row,Sequence,amyloid nucleation score
1,EASNCFAIRHFENKFAVETLICGMKDHTLVCFTR,inactive
2,EASNCFAIRHFENKFAVETLICGMLACHWDGPRM,9.65
3,EASNCFAIRHFENKFAVETLICGMLLYISALSDG,inactive
4,EASNCFAIRHFENKFAVETLICGMMRYLERGSGW,1.9
5,EASNCFAIRHFENKFAVETLICGMPLTGCAACFW,3.56
6,EASNCFAIRHFENKFAVETLICGMQLQDVGSSRK,inactive
7,EASNCFAIRHFENKFAVETLICGMRVLQLSLTVD,inactive
8,EASNCFAIRHFENKFAVETLICGMSAADKLRRSW,1.88
9,EASNCFAIRHFENKFAVETLICGMT,0.593
10,EASNCFAIRHFENKFAVETLICGMTGDSIRLWVT,3.81
11,EASNCFAIRHFENKFAVETLICGMVACRIVVSAL,inactive
12,EASNCFAIRHFENKFAVETLICGMVVGGRLCAGM,inactive
13,EASNCFAIRHFENKFAVETLICGMVVRLMLFVHG,inactive
14,EASNCFAIRHFENKFAVETLICGMWTAWRMGLVQ,inactive
15,EASNCFAIRHFENKFAVETLICGMYELTLELTEI,inactive
16,EASNCFAIRHFENKFAVETLICGNFTVCQLARKA,7.61
